Measured values from PubChem BioAssay AID1645882 (National Center for Advancing Translational Sciences (NCATS), 2021).
Hit rate of the full screen: of about 16,000 compounds, about 120 (0.75%) were called active. Inconclusive results (about 4%) are left out. Calls follow the shape of the dose curve; as a rule, active = well fitted inhibition curve with a large enough effect; inconclusive = small, poorly fitted or top-dose-only effect; inactive = no such curve, though single readings can be large or run the other way. The list shows a part of the results.

Target: Rap guanine nucleotide exchange factor 3 (Homo sapiens) (UniProt O95398)
Test: Validation qHTS for antagonist of cAMP-regulated guanine nucleotide exchange factor 3 (EPAC1); also: nearly all actives have a fitted effect of over 75% in size
Conditions: EPAC1 Rap1B-BODIPY-GDP exchange, fluorescence; series mostly up to 150 µM; activity change, negative = inhibition: at the top concentration
Summary of the method: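 EPAC1 (100 nM) mixed with 250 nM RAP1B-BODIPY-GDP and 50 uM GDP; compounds in concentration series, 5 min at room temperature. Fluorescence (ex 480/em 540 nm) read every 5 min for 30 min; normalized to ATA control and DMSO.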

Chain of UniProt O95398 (O95398 whole entry, looked up): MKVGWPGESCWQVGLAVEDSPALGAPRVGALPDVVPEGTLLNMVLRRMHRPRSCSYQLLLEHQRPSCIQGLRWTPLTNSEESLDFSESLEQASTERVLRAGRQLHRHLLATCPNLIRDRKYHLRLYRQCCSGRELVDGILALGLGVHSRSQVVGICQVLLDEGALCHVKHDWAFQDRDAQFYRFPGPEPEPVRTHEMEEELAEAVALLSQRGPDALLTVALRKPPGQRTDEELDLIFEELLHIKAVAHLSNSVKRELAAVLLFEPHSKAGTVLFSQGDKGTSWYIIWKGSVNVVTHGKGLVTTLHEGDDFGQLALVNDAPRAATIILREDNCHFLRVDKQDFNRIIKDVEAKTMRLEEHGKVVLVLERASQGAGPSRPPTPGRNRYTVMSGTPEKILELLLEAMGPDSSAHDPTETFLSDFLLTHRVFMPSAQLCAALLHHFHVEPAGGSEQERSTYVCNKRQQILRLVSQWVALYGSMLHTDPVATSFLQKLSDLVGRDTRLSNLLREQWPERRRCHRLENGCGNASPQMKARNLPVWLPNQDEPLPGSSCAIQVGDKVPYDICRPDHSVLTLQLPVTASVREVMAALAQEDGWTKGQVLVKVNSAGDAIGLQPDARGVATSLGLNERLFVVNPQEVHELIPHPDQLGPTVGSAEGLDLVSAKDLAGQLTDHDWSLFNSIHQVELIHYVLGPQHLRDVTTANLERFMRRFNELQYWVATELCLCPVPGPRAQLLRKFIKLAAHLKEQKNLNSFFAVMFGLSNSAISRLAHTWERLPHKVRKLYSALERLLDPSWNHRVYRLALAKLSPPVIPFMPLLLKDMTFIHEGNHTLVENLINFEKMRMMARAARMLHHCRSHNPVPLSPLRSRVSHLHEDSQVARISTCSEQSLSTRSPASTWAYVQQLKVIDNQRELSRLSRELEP

Activity change, negative = inhibition, inactive:
Cc1cnc(CNc2ncnc3ccc(-c4ccccc4C#N)cc23)cn1 18.3%
Cn1c(-c2ccncc2)nc2cc(C(=O)N[C@H]3CCCCNC3=O)cc(NC(=O)C3CCC3)c21 11.7%
COc1cc(=O)n2c(c1C(=O)NCc1ccco1)CCN(Cc1ccccc1)CC2 15%
NCCNS(=O)(=O)c1cccc2cnccc12
CS(=O)(=O)N1CCC2(CCCN(C(=O)Nc3cccc(F)c3)C2)CC1 11.8%
COCCNc1nc(-c2ccccc2CN(C)C)nc2ccccc12 7.76%
NC(N)=Nc1nc(CSCC/C(N)=N/S(N)(=O)=O)cs1
N#Cc1cccc(NC(=O)N2CC3(CCN(C(=O)c4cnccn4)CC3)C2)c1 18.9%
Cc1cc(-c2ccccc2)nnc1NCCN1CCOCC1
COc1ccc(-c2cc(=O)c3c(OC(C)=O)cc(OC(C)=O)cc3o2)cc1 -1.11%
CN(Cc1ccco1)c1ncnc2ccc(-c3ccccc3C#N)cc12 -12.4%
CCNc1ncc2nc(-c3ccccc3)c(=O)n(CCc3ccccc3)c2n1 2.65%
CC/C(=C(/CC)c1ccc(O)cc1)c1ccc(O)cc1
O=c1cc(-c2ccc(O)cc2)oc2cc(O[C@H]3OC(CO)C(O)C(O)C3O)cc(O)c12 (stereo partly specified) 5.46%
CC1=C(/C=C/C(C)=C/C=C/C(C)=C\C(=O)O)C(C)(C)CCC1
Cc1ccccc1C(=O)N1CCc2c(cnc(C)c2CNC(=O)CN2CCCCC2)C1 19.3%
CC(=O)O[C@@H]1C(=O)O[C@@H]2[C@H]1OC(=O)[C@@H]2OC(C)=O 15.6%
Cc1cc(S(=O)(=O)NCc2nc(N3CCCC3)c3cc(Cl)ccc3n2)c(C)s1 9.5%
Cc1ccccc1-c1cc(Nc2ccc(F)cc2)ncn1 11.1%
Cc1cccc(C(=O)N2CCOc3ccc(CN(C)Cc4cc(C5CC5)n[nH]4)cc3C2)n1 19.1%
CN(C)c1ccc(/C=C/c2ccnc3c2ccc2c(/C=C/c4ccc(N(C)C)cc4)ccnc23)cc1 19.8%
NC1C=CC=C(C(=O)O)C1 (stereo unspecified)
COc1ccc2[nH]cc(CCNc3cc(-c4ccccc4CN(C)C)ncn3)c2c1 19.3%
C[C@H](NC(=O)OC(C)(C)C)[C@@H](O)c1ccco1 1.01%
CSc1ccc2c(c1)N(CCC1CCCCN1C)c1ccccc1S2 (stereo unspecified)
CCCCC[C@H]1CN(CCCC)C(=O)[C@@H]1CC(=O)NCc1ccc(OC)cc1 -16.4%
Cc1oc(-c2ccccc2NS(C)(=O)=O)nc1CN(C)Cc1ccc(Cl)cc1 -4.25%
C[C@H]1CC[C@@H]2N(C1)C[C@H]1[C@@H]3C[C@H]4[C@@H](C/C(=N\O)[C@H]5C[C@@H](O)CC[C@@]54C)[C@@H]3CC[C@H]1[C@]2(C)O 20.3%
COc1cccc(-c2nc(NC3CCNCC3)c3ccccc3n2)c1 0.869%
COc1cc(-c2ccc(=O)[nH]n2)ccc1OC(F)F
COc1ccc(C(=O)NCc2nnc(SC)n2-c2ccccc2C)c(OC)c1OC 15%
N[C@H](CS)C(=O)O 14.2%
C(=C\c1ccncc1)/c1ccccc1
CNC(=O)[C@H]1O[C@H](n2cnc3c(NCc4cccc(I)c4)nc(Cl)nc32)[C@@H](O)[C@@H]1O -9.07%
COc1ccc(CN([C@H](C)CO)S(=O)(=O)N(Cc2ccccc2)[C@H](CO)C(C)C)cc1 -19.2%
Cc1ccc(C(=O)C[n+]2cccc3cccc(O)c32)cc1 26.1%
Cc1ncc2c(c1CNC(=O)/C=C/c1cccs1)CCN(C(=O)c1c(C)noc1C)C2 12.7%
COC(=O)N1c2ccccc2C23[C@@H]4CN5CCC[C@]6(CCC12C(O)(C6)C4=O)[C@H]53 11.1%
COc1ccc(CN2CCN(C(C)=O)CC2)cc1OC1CCN(C(=O)c2ccc3ccccc3n2)CC1 -11.9%
CCCC(CCC)C(=O)OC1C[C@H]2CC[C@@H](C1)[N+]2(C)C (stereo partly specified)
CC(N)=NCCC[C@H](N)C(=O)O 5.88%
Cc1noc(C)c1C(=O)N1CCC2(CCCN(C(=O)Nc3ccccc3)C2)CC1 7.69%
CC[N+](CC)(CC)CC(=O)Nc1c(C)cccc1C
COc1ncc2ncc(=O)n(Cc3cccs3)c2n1 7.59%
COc1ccc2[nH]cc(CCNc3cc(-c4c(C)noc4C)ncn3)c2c1 -18.5%
Cc1ccc(C(=O)N(Cc2cc3cccc(C)c3nc2N2CCC(O)CC2)C2CC2)cc1 -8.54%
CC(O)(COc1ccccc1)c1ccc2c(c1)CN(Cc1cn[nH]c1-c1ccc(F)cc1)CCO2 (stereo unspecified) -13.1%
COC(=O)C1CCN(Cc2ccc3c(c2)CN(C(=O)C2Cc4ccccc4O2)CCO3)CC1 (stereo unspecified) 14.5%
O=C(c1cc(C(F)(F)F)cc(C(F)(F)F)c1)N1CCC2(CCCN(c3ccccc3)C2)CC1 -10.8%
COc1ccc(CNc2ccnc(-c3ccoc3)n2)c(OC)c1 0.91%
COc1ccc(Oc2ncc3nc(C)c(=O)n(C)c3n2)cc1 15.2%
Cc1cnc(SCc2ccccn2)nc1C1CCCN(Cc2ccsc2)C1 (stereo unspecified) 23.6%
CCCCNc1c(C(=O)OCC)c(C)nc2c1cnn2CC
CSc1nc2cc(Oc3cccc(Cl)c3Cl)c(Cl)cc2[nH]1 -13.9%
COc1cccc(-c2ccc3ncnc(N4CCNCC4)c3c2)c1 4.91%
CCCCC1(COC(=O)CCC(=O)O)C(=O)N(c2ccccc2)N(c2ccccc2)C1=O
O=c1c(-c2cccc(Cl)c2)nc2cncnc2n1Cc1ccc(F)cc1 -2.65%
CC(C)c1ccc(Cn2ccc3c4c(N)nc(NC5CC5)nc4ccc32)cc1 0.281%
COc1ccccc1CN1CCC2(CC1)CCN(S(=O)(=O)c1ccccc1)CC2 20.4%
COc1cc(NC(C)CCCN)c2ncccc2c1 (stereo unspecified)
O=c1[nH]c(=O)n([C@H]2C[C@H](O)[C@@H](CO)O2)cc1Br
COc1ccc(/C(=C\C(=O)O)c2nccc3cc(OC)c(OC)cc23)cc1OC 3%
CN(C)C(=O)c1ccc(-c2cncnc2NCc2cccnc2)cc1 -14.7%
CS(=O)(=O)N1CCC[C@@]2(CCN(c3ccncc3)C2)C1 16.4%
COc1cccc(CN2c3ccc(Br)cc3C(=O)CS2(=O)=O)c1 -14.1%
COc1ncc2nc(-c3ccccc3)c(=O)n(CCC#N)c2n1 -3.07%
CN(C)c1ccc(/C=[N+]2\C(=O)CC(=O)NC2=O)cc1 10.7%
COc1cccc(OC)c1C(=O)N[C@@H]1C(=O)N2[C@@H]1SC(C)(C)[C@@H]2C(=O)O 20%
COCCn1c(=O)c(-c2ccc(OC)cc2)nc2cnc(Nc3ccccc3)nc21 4.06%
Cc1ccc(S(=O)(=O)NC(=O)NN2CCCCCC2)cc1
COc1cc2c(CCNC(C)=O)c[nH]c2cc1Cl
CC1Cc2ccccc2C[N+]1(C)CC(=O)c1cccc([N+](=O)[O-])c1 (stereo unspecified) -23%
N#CCCN1CCC(NC(=O)OCc2ccccc2)CCC1=O (stereo unspecified) -0.114%
CO/N=C(/C(=O)NC1C(=O)N2C(C(=O)O)=C(CSc3nc(=O)c(O)nn3C)CSC12)c1csc(N)n1 (stereo unspecified) 6.35%
Cc1ncc2c(c1CNC(=O)c1ccc3c(c1)OCO3)CCN(C(=O)c1cccc(-n3cccn3)c1)C2 6.43%
CNC1CCC(c2ccc(Cl)c(Cl)c2)c2ccccc21 (stereo unspecified) 9.51%
CS(=O)(=O)Nc1cccc(-c2ccc3ncnc(N4CCOCC4)c3c2)c1 9.3%
CSc1ccc2cc(CNCc3ccccc3F)c(N3CCCC(CO)C3)nc2c1 (stereo unspecified) 7.44%
CCC1CN(CCNC(=O)c2cccnc2C)Cc2cc(OC)ccc2O1 (stereo unspecified) 7.12%
Cc1cnc2c(C)cccc2c1C 3.14%
COc1ccc(Oc2ncc3nc(C)c(=O)n(-c4ccccc4)c3n2)cc1 6.22%
COCC(=O)N1CCC2(CC1)CCN(c1ncccn1)CC2 14.1%
COCC(=O)N1CCC2(CC1)CCN(C(=O)Nc1cccc(F)c1)CC2 35.6%
C=CCn1c(=O)c2c(nc(-c3ccc(S(=O)(=O)O)cc3)n2C)n(C)c1=O
CCCCN1CC[C@H]2C=CC[C@@H](C(=O)NCc3ccc(OC)cc3)[C@H]2C1=O 0.704%
O=C(c1cc2ccccc2o1)N1CCN(Cc2ccccc2)CC1 4.24%
O=c1c(-c2cccc(Cl)c2)nc2cncnc2n1-c1ccccc1 3.94%
CC(C)c1ccc2c(c1)CC[C@@H]1[C@@](C)(CN)CCC[C@]21C 10.5%
CC(C)c1c(C(=O)NCC2(N3CCCCC3)CCCC2)cnn1-c1nccc(-c2ccco2)n1 12.4%
Cc1cc2nc(N3CCC(NC(C)c4nc(-c5ccccn5)no4)CC3)nc(C)c2cc1C (stereo unspecified) 1.9%
CN(Cc1ccco1)c1nc(-c2cccnc2)nc2ccccc12 -1.3%
Nc1nc2c([nH]c(=O)n2C2OC(CO)C(O)C2O)c(=O)[nH]1 (stereo unspecified) 10.9%
CCOC(=O)c1ccc(N)cc1
Cc1ccc2c(C)ccnc2c1 -2.01%
CCC1(C2CCN(C(=O)c3ccccc3Cl)CC2)NC(=O)N(CCc2scnc2C)C1=O (stereo unspecified) 6.92%
CCNc1ncc2nc(C)c(=O)n(CCC#N)c2n1 -3.94%
CC1c2ccccc2CN1CC1=NCCN1 (stereo unspecified) 4.55%
CCCCCCCCCCCCCCC(F)C(=O)O (stereo unspecified) 21% [at 15.3 µM]
OC(CCCN1CCCCC1)(c1ccccc1)c1ccccc1 23.2%
O=c1c2ccccc2oc2cc(O)c(C3COCC(CO)C(O)C(O)C3O)c(O)c12 (stereo unspecified) -10.1%
CCN(CC)CCOC(=O)C(c1ccccc1)c1ccccc1 20.8%
COC(=O)N1CCC2(CC1)CN(c1cccc(-c3ccccc3)c1)C2 -19.2%
CN1CCN(c2c(F)cc3c(=O)c(C(=O)O)cn4c3c2OCN4C)CC1 -0.374%
c1cncc(CNc2ncnc3ccc(-c4ccoc4)cc23)c1 -7.04%
COc1cc([C@@H]2Oc3cc([C@H]4Oc5cc(O)cc(O)c5C(=O)[C@H]4O)ccc3O[C@H]2CO)ccc1O -5.5%
COC(=O)C1CCCCN1Cc1ccc2c(c1)CN(Cc1cc(OC)c3c(c1)OCO3)CCO2 (stereo unspecified) -7.6%
